{
  "source": "the supplement of paper PMC11417369",
  "note": "± gives the standard deviation of the averaged measurements. The list shows a part of the results.",
  "data": [
    {"tested_on": "PfAP2-G AP2 domain (GST-tagged)", "experiment": "gcPBM binding intensity (ln(normalized median fluorescence intensity)); higher = stronger DNA binding", "outline": "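For binding intensity, the highest Masliner-normalised natural-log median intensity across replicate spots of either probe orientation was taken. Protein bound to the array was stained with Alexa488 anti-GST antibody and scanned at 488 nm. The protein, GST-tagged P. falciparum DNA-binding domains from E. coli at about 25 μg on average, had been applied for 1 h to an Agilent 4 × 180k array of primer-extended double-stranded 36-bp intergenic genomic probes and negative controls.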", "values": [
      {"sequence": "CCGCCATTGTACCATCCACACACATATATATATGTA [CACACA_site8866]", "gcPBM binding intensity (ln)": "10.9 ± 0.45"},
      {"sequence": "TACCTATACAGACACACACACACACGCCCACAAAAA [CACACA_site6375]", "gcPBM binding intensity (ln)": "10.7 ± 0.45"},
      {"sequence": "TTTTTATATTTATATAAATAAAAAAATAACAAAATG [XGTACX_negctrl_site231]", "gcPBM binding intensity (ln)": "10.4 ± 0.5"},
      {"sequence": "CTCCATATTAGACACACACACAAATGAAAAAAATAT [CACACA_site7420]", "gcPBM binding intensity (ln)": "10.3 ± 0.4"},
      {"sequence": "TAAAATTAAACAAAAAAAAAGAAAAAAAAAAAAAAG [CACACA_negctrl_site1098]", "gcPBM binding intensity (ln)": "9.875 ± 0.007"},
      {"sequence": "TGAACATACATCAAAAGTACAAACTCGCATGTTATA [XGTACX_site3320]", "gcPBM binding intensity (ln)": "11.2 ± 0.73"},
      {"sequence": "ACGGATTAAAAAATGTGTACGCACAAAAAAAAAAAT [XGTACX_site8259]", "gcPBM binding intensity (ln)": "11.7 ± 0.97"},
      {"sequence": "TACGAAATCATATGTACACACACATATATATATATA [CACACA_site5216]", "gcPBM binding intensity (ln)": "11.3 ± 0.92"},
      {"sequence": "ATTATATATATATTATGTACATATATTGAAGTGGAT [XGTACX_site5916]", "gcPBM binding intensity (ln)": "11.4 ± 0.65"},
      {"sequence": "GAAATGTGATAATATACACACACGCATATATATATA [CACACA_site4332]", "gcPBM binding intensity (ln)": "9.95 ± 0.16"},
      {"sequence": "TGTTCAGTATTGCACACACACAACAAAATAAAAAAA [CACACA_site6314]", "gcPBM binding intensity (ln)": "10.3 ± 0.33"},
      {"sequence": "ATATATATATATATATGTACTTAATGTTATTATATA [XGTACX_site4508]", "gcPBM binding intensity (ln)": "11 ± 0.85"},
      {"sequence": "CACAACAGGGTTGAGGTGCGTAAAAATAGTAGAATA [GTGCAC_site9523]", "gcPBM binding intensity (ln)": "10.26 ± 0.064"},
      {"sequence": "ACATAAAAATTATGCACACTTAATAAAGCGAAATGT [CACACA_site3183]", "gcPBM binding intensity (ln)": "10.2 ± 0.13"},
      {"sequence": "ATACTTTATTAATATTGTACAAAATAAGAAAAAAAA [XGTACX_site310]", "gcPBM binding intensity (ln)": "10.8 ± 0.47"},
      {"sequence": "ATTCTATTTTTAAGTACACACATATATATATATATA [CACACA_site3658]", "gcPBM binding intensity (ln)": "11.5 ± 0.87"},
      {"sequence": "ACATAATTATTATGCACACATATTTTTATGTATTTA [CACACA_site698]", "gcPBM binding intensity (ln)": "9.99 ± 0.028"},
      {"sequence": "TTTTTAATCCTTTGCGCATGTAAAATTATATATTTT [TGCATGCA_site306]", "gcPBM binding intensity (ln)": "10.1 ± 0.11"},
      {"sequence": "TATATATATATGTGTACACAAAAAATATTATATTAT [CACACA_site5505]", "gcPBM binding intensity (ln)": "11.9 ± 0.93"},
      {"sequence": "GCTTATTTTAATTCTTGTACTTATTTATATACAAAT [XGTACX_site2099]", "gcPBM binding intensity (ln)": "11.2 ± 0.83"},
      {"sequence": "TAATGGTGTTCATGTGGTACACTTTATAAATTGGCA [XGTACX_site729]", "gcPBM binding intensity (ln)": "11.7 ± 1.1"},
      {"sequence": "TTGAAAATTCTTAAGGCACACACATATATAATATAT [CACACA_site8088]", "gcPBM binding intensity (ln)": "10.3 ± 0.26"},
      {"sequence": "AAACTAACTCTAACATGTACATATATATATATATAT [XGTACX_site6949]", "gcPBM binding intensity (ln)": "11.1 ± 0.66"},
      {"sequence": "ACTTTGCGTTAAAAGAGTACATAATATTTTTTTTTT [XGTACX_site7533]", "gcPBM binding intensity (ln)": "11.2 ± 0.73"},
      {"sequence": "TTTTGAAGTAATACATGTACTTAAATTACTAAAAAA [XGTACX_site1955]", "gcPBM binding intensity (ln)": "11.4 ± 0.76"},
      {"sequence": "TATTGTCTTGTATATGCATGTAGACCAAATATGTAA [TGCATGCA_site9]", "gcPBM binding intensity (ln)": "10.5 ± 0.45"},
      {"sequence": "CAAAAAAAAATCTGTAGTACTTATTAATATTGCTGT [XGTACX_site4767]", "gcPBM binding intensity (ln)": "11.1 ± 0.58"},
      {"sequence": "ATAAAGTCTATATTATGTACATATAATATAAATATT [XGTACX_site6703]", "gcPBM binding intensity (ln)": "11.1 ± 0.5"},
      {"sequence": "AAAAAACTTCACATATGTACTTAAAAAAAATTAAAA [XGTACX_site2368]", "gcPBM binding intensity (ln)": "11.3 ± 0.95"},
      {"sequence": "GAACATTACGTAAATAAATAAATAAAAATAAATACA [XGTACX_negctrl_site25]", "gcPBM binding intensity (ln)": "10.1 ± 0.22"},
      {"sequence": "TCCCCATATGTTTTGTGTACATATATATTTTTTTGT [XGTACX_site75]", "gcPBM binding intensity (ln)": "11.5 ± 0.79"},
      {"sequence": "TAATATATTAATATATGTACATATTTATATATCTAC [XGTACX_site7117]", "gcPBM binding intensity (ln)": "11.2 ± 0.7"},
      {"sequence": "ATCACAAAAAAGTTCATACACACAACCTATTTATAT [CACACA_site2888]", "gcPBM binding intensity (ln)": "10.055 ± 0.007"},
      {"sequence": "AAATCAAATTTTTAGAGTACTTAAGTTTTCTATATA [XGTACX_site7827]", "gcPBM binding intensity (ln)": "11.2 ± 0.64"},
      {"sequence": "AAATAAGAGCGTAGCACACACGCATTTTATAAATGG [CACACA_site4571]", "gcPBM binding intensity (ln)": "10 ± 0.11"},
      {"sequence": "TCATATAAGTTTAGTAGTACTAAAAGTTAGAGAGAA [XGTACX_site3430]", "gcPBM binding intensity (ln)": "11.2 ± 0.81"},
      {"sequence": "AAAATTAAACATACATCACACATGCATTATATTATG [CACACA_site5517]", "gcPBM binding intensity (ln)": "9.97 ± 0.028"},
      {"sequence": "TTAAACGTACATAATACACACACATGTAGACATATA [CACACA_site8635]", "gcPBM binding intensity (ln)": "11.4 ± 0.97"},
      {"sequence": "AAAATTAACGAGTGCACACATATTTAGATAAAATAC [CACACA_site2936]", "gcPBM binding intensity (ln)": "10.7 ± 0.33"},
      {"sequence": "TGATTATTATAATTTAGTACATAATATTTTATATAA [XGTACX_site6125]", "gcPBM binding intensity (ln)": "11 ± 0.8"},
      {"sequence": "CAAGGAACCAGACACACACACATAAATGTATATATA [CACACA_site752]", "gcPBM binding intensity (ln)": "10.1 ± 0.18"},
      {"sequence": "AAAACAAAAGAATTCACACATATATATATATATATA [CACACA_site4777]", "gcPBM binding intensity (ln)": "9.94 ± 0.38"},
      {"sequence": "ATCTTTCAATAATTCACACATATATATATATATATA [CACACA_site4598]", "gcPBM binding intensity (ln)": "10.3 ± 0.59"},
      {"sequence": "ATATATATATATGTACACATATATGTGTTTGTTTTT [GTGCAC_negctrl_site5]", "gcPBM binding intensity (ln)": "11.5 ± 0.83"},
      {"sequence": "CTATTACAAAGAAATTGTACATATATATATAAAAAC [XGTACX_site8800]", "gcPBM binding intensity (ln)": "11 ± 0.73"},
      {"sequence": "TTTTTATGAATTCTTTTGTTAATAATAATATGTTGT [TGCATGCA_negctrl_site198]", "gcPBM binding intensity (ln)": "9.85 ± 0.12"},
      {"sequence": "TTTTAACGTAATTCAAATGAGCAGAATTTTTTAAAA [CACACA_negctrl_site1800]", "gcPBM binding intensity (ln)": "9.825 ± 0.007"},
      {"sequence": "AATATTTTTAATTAATGTACATATTTATTATATAAA [XGTACX_site5112]", "gcPBM binding intensity (ln)": "11.2 ± 0.76"},
      {"sequence": "AAATTTTTTCCGATTTGTACTTATATTTCTTTATTA [XGTACX_site1762]", "gcPBM binding intensity (ln)": "11.1 ± 0.61"},
      {"sequence": "AATGAAGACTTTTTTACACACTTCATATCTTATAGA [CACACA_site7046]", "gcPBM binding intensity (ln)": "9.99 ± 0.028"},
      {"sequence": "AGCCACAATACGGAAACACACAAGTTATTTTATCAT [CACACA_site2724]", "gcPBM binding intensity (ln)": "10.1 ± 0.13"},
      {"sequence": "TATATATTAAATTATAGTACACATTATATATAATTA [XGTACX_site4841]", "gcPBM binding intensity (ln)": "11.2 ± 0.83"},
      {"sequence": "TATATATATATATATAGTACACATATCACATAAATG [XGTACX_site6379]", "gcPBM binding intensity (ln)": "11.1 ± 0.79"},
      {"sequence": "ATAATATATGTATGTATGCACTTTTATTATTTTTTT", "gcPBM binding intensity (ln)": "9.995 ± 0.021"},
      {"sequence": "TAAATAAATTTATGTACACACACAAATAAATACATA [CACACA_site5107]", "gcPBM binding intensity (ln)": "11.5 ± 1"},
      {"sequence": "AAAAAAAAGAAAAACACACACATATTTATTTATAAC [CACACA_site6600]", "gcPBM binding intensity (ln)": "9.79 ± 0.11"},
      {"sequence": "ATAATATATATATTTTGTACACATGAAAAGGAGGAT [XGTACX_site5034]", "gcPBM binding intensity (ln)": "11.3 ± 0.81"}
    ]}
  ]
}
